# Laboratory results taken from the supplement of paper PMC8728848.
# This is one part of the list.
# What was measured:
# Assay in all cases: glycan array binding signal (z-score within array); higher = stronger binding
# Settings in all cases: glycan notation: IUPAC condensed, linker removed
# [1] = target: Neu5Ac(a2-3)Gal(b1-3)GlcNAc(b1-2)Man(a1-3)[GlcNAc(b1-4)][Neu5Ac(a2-3)Gal(b1-3)GlcNAc(b1-2)Man(a1-6)]Man(b1-4)GlcNAc(b1-4)GlcNAc
# How it was run: (§1)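 Glycan array binding is given as a within-array Z-score, which can be read as non-binding when negative. The arrays, 3228 of them, came from the Consortium for Functional Glycomics database and were retained only where the protein sequence was available. Z-scores were averaged across arrays of the same protein sequence at different concentrations or buffers and across linkers.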
# [2] = target: Neu5Ac(a2-3)Gal(b1-3)GlcNAc(b1-2)Man(a1-3)[Neu5Ac(a2-3)Gal(b1-3)GlcNAc(b1-2)Man(a1-6)]Man(b1-4)GlcNAc(b1-4)GlcNAc
# How it was run: as §1
# [3] = target: Neu5Ac(a2-3)Gal(b1-3)GlcNAc(b1-3)Gal(b1-3)GlcNAc
# How it was run: as §1
# [4] = target: Neu5Ac(a2-3)Gal(b1-3)GlcNAc(b1-3)Gal(b1-4)GlcNAc
# How it was run: as §1
# [5] = target: Neu5Ac(a2-3)Gal(b1-3)GlcNAc(b1-3)GalNAc
# How it was run: as §1
# [6] = target: Neu5Ac(a2-3)Gal(b1-3)GlcNAc(b1-4)Gal(b1-4)Glc
# How it was run: as §1
# [7] = target: Neu5Ac(a2-3)Gal(b1-3)GlcNAc(b1-6)GalNAc
# How it was run: as §1
# [8] = target: Neu5Ac(a2-3)Gal(b1-3)GlcNAc6S
# How it was run: as §1
# [9] = target: Neu5Ac(a2-3)Gal(b1-3)[Fuc(a1-4)]GlcNAc
# How it was run: as §1
# [10] = target: Neu5Ac(a2-3)Gal(b1-3)[Fuc(a1-4)]GlcNAc(b1-3)Gal(b1-3)[Fuc(a1-4)]GlcNAc
# How it was run: as §1
# [11] = target: Neu5Ac(a2-3)Gal(b1-3)[Fuc(a1-4)]GlcNAc(b1-3)Gal(b1-4)[Fuc(a1-3)]GlcNAc
# How it was run: as §1
# [12] = target: Neu5Ac(a2-3)Gal(b1-3)[GlcNAc(b1-6)]GalNAc
# How it was run: as §1
# [13] = target: Neu5Ac(a2-3)Gal(b1-3)[Neu5Ac(a2-6)]GalNAc
# How it was run: as §1
# [14] = target: Neu5Ac(a2-3)Gal(b1-3)[Neu5Ac(a2-6)]GlcNAc(b1-3)[Fuc(a1-3)[Gal(b1-4)]GlcNAc(b1-6)]Gal(b1-4)Glc
# How it was run: as §1
# [15] = target: Neu5Ac(a2-3)Gal(b1-3)]Neu5Ac(a2-3)Gal(b1-4)]GlcNAc
# How it was run: as §1
# Neu5Ac(a2-3)Gal(b1-4)Glc = target: Neu5Ac(a2-3)Gal(b1-4)Glc
# How it was run: as §1
# [16] = target: Neu5Ac(a2-3)Gal(b1-4)GlcNAc
# How it was run: as §1
# [17] = target: Neu5Ac(a2-3)Gal(b1-4)GlcNAc(b1-2)Man
# How it was run: as §1
# [18] = target: Neu5Ac(a2-3)Gal(b1-4)GlcNAc(b1-2)Man(a1-3)[GlcNAc(b1-4)][Neu5Ac(a2-3)Gal(b1-4)GlcNAc(b1-2)Man(a1-6)]Man(b1-4)GlcNAc(b1-4)GlcNAc
# How it was run: as §1
# [19] = target: Neu5Ac(a2-3)Gal(b1-4)GlcNAc(b1-2)Man(a1-3)[Neu5Ac(a2-3)Gal(b1-4)GlcNAc(b1-2)Man(a1-6)]Man(b1-4)GlcNAc(b1-4)GlcNAc
# How it was run: as §1
# [20] = target: Neu5Ac(a2-3)Gal(b1-4)GlcNAc(b1-2)Man(a1-3)[Neu5Ac(a2-3)Gal(b1-4)GlcNAc(b1-2)Man(a1-6)]Man(b1-4)GlcNAc(b1-4)[Fuc(a1-6)]GlcNAc
# How it was run: as §1
# [21] = target: Neu5Ac(a2-3)Gal(b1-4)GlcNAc(b1-2)Man(a1-3)[Neu5Ac(a2-6)Gal(b1-4)GlcNAc(b1-2)Man(a1-6)]Man(b1-4)GlcNAc(b1-4)GlcNAc
# How it was run: as §1
# [22] = target: Neu5Ac(a2-3)Gal(b1-4)GlcNAc(b1-2)[Neu5Ac(a2-3)Gal(b1-4)GlcNAc(b1-4)]Man(a1-3)[GlcNAc(b1-4)][Neu5Ac(a2-3)Gal(b1-4)GlcNAc(b1-2)[Neu5Ac(a2-3)Gal(b1-4)GlcNAc(b1-6)]Man(a1-6)]Man(b1-4)GlcNAc(b1-4)GlcNAc
# How it was run: as §1
# [23] = target: Neu5Ac(a2-3)Gal(b1-4)GlcNAc(b1-2)[Neu5Ac(a2-3)Gal(b1-4)GlcNAc(b1-4)]Man(a1-3)[GlcNAc(b1-4)][Neu5Ac(a2-3)Gal(b1-4)GlcNAc(b1-4)Man(a1-6)]Man(b1-4)GlcNAc(b1-4)GlcNAc
# How it was run: as §1
# [24] = target: Neu5Ac(a2-3)Gal(b1-4)GlcNAc(b1-2)[Neu5Ac(a2-3)Gal(b1-4)GlcNAc(b1-6)]Man(a1-6)[Neu5Ac(a2-3)Gal(b1-4)GlcNAc(b1-2)Man(a1-3)]Man(b1-4)GlcNAc(b1-4)GlcNAc
# How it was run: as §1
# [25] = target: Neu5Ac(a2-3)Gal(b1-4)GlcNAc(b1-2)[Neu5Ac(a2-3)Gal(b1-4)GlcNAc(b1-6)]Man(a1-6)[Neu5Ac(a2-3)Gal(b1-4)GlcNAc(b1-2)Man(a1-3)][GlcNAc(b1-4)]Man(b1-4)GlcNAc(b1-4)GlcNAc
# How it was run: as §1
# [26] = target: Neu5Ac(a2-3)Gal(b1-4)GlcNAc(b1-3)Gal
# How it was run: as §1
# [27] = target: Neu5Ac(a2-3)Gal(b1-4)GlcNAc(b1-3)Gal(b1-3)GlcNAc
# How it was run: as §1
# [28] = target: Neu5Ac(a2-3)Gal(b1-4)GlcNAc(b1-3)Gal(b1-4)GlcNAc
# How it was run: as §1
# [29] = target: Neu5Ac(a2-3)Gal(b1-4)GlcNAc(b1-3)Gal(b1-4)GlcNAc(b1-2)Man(a1-3)[Neu5Ac(a2-3)Gal(b1-4)GlcNAc(b1-3)Gal(b1-4)GlcNAc(b1-2)Man(a1-6)]Man(b1-4)GlcNAc(b1-4)GlcNAc
# How it was run: as §1
# [30] = target: Neu5Ac(a2-3)Gal(b1-4)GlcNAc(b1-3)Gal(b1-4)GlcNAc(b1-3)Gal(b1-4)GlcNAc
# How it was run: as §1
# [31] = target: Neu5Ac(a2-3)Gal(b1-4)GlcNAc(b1-3)Gal(b1-4)GlcNAc(b1-3)Gal(b1-4)GlcNAc(b1-2)Man(a1-3)[Neu5Ac(a2-3)Gal(b1-4)GlcNAc(b1-3)Gal(b1-4)GlcNAc(b1-3)Gal(b1-4)GlcNAc(b1-2)Man(a1-6)]GalNAc
# How it was run: as §1
# [32] = target: Neu5Ac(a2-3)Gal(b1-4)GlcNAc(b1-3)Gal(b1-4)GlcNAc(b1-3)GalNAc
# How it was run: as §1
# [33] = target: Neu5Ac(a2-3)Gal(b1-4)GlcNAc(b1-3)Gal(b1-4)GlcNAc(b1-3)[Neu5Ac(a2-3)Gal(b1-4)GlcNAc(b1-3)Gal(b1-4)GlcNAc(b1-6)]GalNAc
# How it was run: as §1
# [34] = target: Neu5Ac(a2-3)Gal(b1-4)GlcNAc(b1-3)Gal(b1-4)GlcNAc(b1-6)[Gal(b1-3)]GalNAc
# How it was run: as §1
# [35] = target: Neu5Ac(a2-3)Gal(b1-4)GlcNAc(b1-3)Gal(b1-4)[Fuc(a1-3)]GlcNAc
# How it was run: as §1
# [36] = target: Neu5Ac(a2-3)Gal(b1-4)GlcNAc(b1-3)GalNAc
# How it was run: as §1
# [37] = target: Neu5Ac(a2-3)Gal(b1-4)GlcNAc(b1-3)[Neu5Ac(a2-3)Gal(b1-4)GlcNAc(b1-6)]GalNAc
# How it was run: as §1
binder,measurement,setting,value
PX14343A-bvu-539-29-539 (Bacteroides vulgatus) (protein) DSLTESSSNTFWQTPDDALMALASCYDALQSNQLYNSDQYSLGPLYMDCISDNGGHFNWSGWMEGYDMAMGIHTPSSSIIGSYWKDCYEVISRCNVLIANIDRVDMDASQKAIYQAEAKTIRALMYINLTMTYQDVPFLTAPLTIDEAECEKTDRAAIVAHVMTDLQDAAEVLPQNASSRGHITKGAALSLLGRVALYNEKWDDAIAAYKQVQGLGYSLDPSYAKLFTQSGETSPEIIFAVRYEGPGMSEGAAFNAHWNTPLEAMNGTIDLADAYYCKDGKPTTDTKIAELNGGGGLDVSKPNPAHFENRDPRLYSTLFVPGMLWNGKGGIDTSASNPYANVYGGAAASLSTVYVYKYFDPTDTSNSWDNGQDFYVVRYAEVLLSLAEAMVQKGGYVYSDVTALVNEVRQRADVNMPTVEEVEGTSLSKDELLEVIKHERRVELAFEGLRLFDLYRWKELDKAVANIENERTMYGLAYEARKFNGERDYVWPLPTAELDTNKKLVQHDLWK,glycan array binding signal (z-score),[1],-0.271
same,glycan array binding signal (z-score),[2],-0.218
same,glycan array binding signal (z-score),[3],-0.368
same,glycan array binding signal (z-score),[4],-0.246
same,glycan array binding signal (z-score),[5],-0.389
same,glycan array binding signal (z-score),[6],-0.158
same,glycan array binding signal (z-score),[7],-0.033
same,glycan array binding signal (z-score),[8],0.032
same,glycan array binding signal (z-score),[9],-0.151
same,glycan array binding signal (z-score),[10],0.264
same,glycan array binding signal (z-score),[11],-0.171
same,glycan array binding signal (z-score),[12],-0.325
same,glycan array binding signal (z-score),[13],0.662
same,glycan array binding signal (z-score),[14],-0.277
same,glycan array binding signal (z-score),[15],-0.372
same,glycan array binding signal (z-score),Neu5Ac(a2-3)Gal(b1-4)Glc,-0.296
same,glycan array binding signal (z-score),[16],-0.373
same,glycan array binding signal (z-score),[17],-0.237
same,glycan array binding signal (z-score),[18],-0.45
same,glycan array binding signal (z-score),[19],-0.356
same,glycan array binding signal (z-score),[20],-0.157
same,glycan array binding signal (z-score),[21],-0.028
same,glycan array binding signal (z-score),[22],-0.173
same,glycan array binding signal (z-score),[23],-0.312
same,glycan array binding signal (z-score),[24],-0.24
same,glycan array binding signal (z-score),[25],-0.114
same,glycan array binding signal (z-score),[26],-0.377
same,glycan array binding signal (z-score),[27],-0.159
same,glycan array binding signal (z-score),[28],-0.378
same,glycan array binding signal (z-score),[29],-0.096
same,glycan array binding signal (z-score),[30],-0.325
same,glycan array binding signal (z-score),[31],8.35
same,glycan array binding signal (z-score),[32],-0.174
same,glycan array binding signal (z-score),[33],-0.178
same,glycan array binding signal (z-score),[34],-0.244
same,glycan array binding signal (z-score),[35],-0.359
same,glycan array binding signal (z-score),[36],-0.371
same,glycan array binding signal (z-score),[37],-0.306
